43 compounds from article PMC4336329 (PLoS ONE, 2015) can be followed below.

In all, about 310,000 compounds went through this assay and about 14,000 (4.5%) showed an effect of 50% or more. Effects have a minus sign here. The list shows a part of the results.
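Also: peak tail current of the secondary pulse compared with the same well before compound.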

This experiment deals with human ether-à-go-go-related gene (hERG) potassium channel (human, UniProt Q12809). Put plainly: primary screen, population patch clamp on CHO cells stably expressing hERG.
Chain of human ether-à-go-go-related gene (hERG) potassium channel (Q12809 whole entry, looked up): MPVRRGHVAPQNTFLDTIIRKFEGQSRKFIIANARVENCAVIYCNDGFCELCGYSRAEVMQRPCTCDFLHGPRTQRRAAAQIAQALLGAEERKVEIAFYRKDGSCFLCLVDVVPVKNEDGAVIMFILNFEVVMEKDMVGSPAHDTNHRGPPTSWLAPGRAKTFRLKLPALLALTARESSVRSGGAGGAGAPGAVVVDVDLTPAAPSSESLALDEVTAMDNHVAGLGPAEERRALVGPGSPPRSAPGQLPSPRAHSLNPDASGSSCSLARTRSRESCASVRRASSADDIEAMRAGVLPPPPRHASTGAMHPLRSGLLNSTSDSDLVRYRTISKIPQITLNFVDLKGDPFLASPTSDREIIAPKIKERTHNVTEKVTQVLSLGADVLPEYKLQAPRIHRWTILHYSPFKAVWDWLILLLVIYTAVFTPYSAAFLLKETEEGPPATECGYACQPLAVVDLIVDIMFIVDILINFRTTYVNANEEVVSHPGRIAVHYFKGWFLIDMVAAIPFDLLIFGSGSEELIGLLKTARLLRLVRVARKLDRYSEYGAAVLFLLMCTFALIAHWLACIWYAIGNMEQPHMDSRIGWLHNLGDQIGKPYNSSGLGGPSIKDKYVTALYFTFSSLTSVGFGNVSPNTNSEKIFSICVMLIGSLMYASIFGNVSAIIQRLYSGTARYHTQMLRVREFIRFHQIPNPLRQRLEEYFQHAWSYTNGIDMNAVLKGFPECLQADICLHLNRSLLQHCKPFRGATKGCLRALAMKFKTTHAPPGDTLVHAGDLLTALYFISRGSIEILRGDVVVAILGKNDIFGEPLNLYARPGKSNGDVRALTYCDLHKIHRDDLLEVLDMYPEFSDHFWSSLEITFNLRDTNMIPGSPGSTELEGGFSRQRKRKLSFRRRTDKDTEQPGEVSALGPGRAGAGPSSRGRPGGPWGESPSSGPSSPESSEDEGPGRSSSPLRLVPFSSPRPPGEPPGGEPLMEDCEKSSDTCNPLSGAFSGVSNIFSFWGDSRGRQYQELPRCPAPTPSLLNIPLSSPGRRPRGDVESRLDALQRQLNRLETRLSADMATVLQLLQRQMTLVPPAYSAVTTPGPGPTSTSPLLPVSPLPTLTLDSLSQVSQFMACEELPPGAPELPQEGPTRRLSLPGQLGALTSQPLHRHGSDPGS
Take `C=C(C)COc1ccc(-c2nc(N)nc(C)c2Oc2ccccc2OC)c(O)c1`: the “hERG current change (%, negative = inhibition) at 10uM” value came to 17.4%.

Consider `Cc1ccc(N(C)S(=O)(=O)c2csc(C(N)=O)c2)cc1C`, for which the “hERG current change (%, negative = inhibition) at 10uM” value is -14.8%.

On to `O=[N+]([O-])c1ccc(N2CCN(c3ccccc3F)CC2)nc1`, for which the “hERG current change (%, negative = inhibition) at 10uM” value was found to be 13.4%. Take `CCC1C(C#N)=C(N)OC2=C1C(=O)CC(C)(C)C2` (stereo not shown): the “hERG current change (%, negative = inhibition) at 10uM” value is on record as 14.2%. `COc1ccc(NC(=O)CCC(=O)Nc2nnc(C3CCCCC3)s2)c(OC)c1`: the “hERG current change (%, negative = inhibition) at 10uM” value was found to be 23.2%. Take `COc1ccccc1N1CCN(S(=O)(=O)c2ccc3c(c2)NC(=O)C(C)C(=O)N3)CC1` (stereo not shown): the “hERG current change (%, negative = inhibition) at 10uM” value was -7.18%. In the case of `CCOC(=O)Cc1cc(=O)[nH]c(/N=C(/NC(=O)c2ccccc2)Nc2ccccc2C(F)(F)F)n1`, the “hERG current change (%, negative = inhibition) at 10uM” value was 4.39%. For `COCCCNC(=O)c1oc2ccc(S(=O)(=O)N3CCOCC3)cc2c1C`, the “hERG current change (%, negative = inhibition) at 10uM” value is -3.32%. To `Cc1ccc(C(=O)NCC(=O)N2CCN(c3ccccc3)CC2)cc1` belongs -6.26%; to `Cc1c([N+](=O)[O-])cc(S(=O)(=O)Nc2ccncc2)cc1[N+](=O)[O-]`, 34.3%; to `Fc1ccc(Cn2nnnc2CN2CCN(C3CCCCC3)CC2)cc1`, -45.4%. As for `CC(Oc1ccccc1F)C(=O)NNC(=O)CCNC(=O)c1ccco1` (stereo not shown), the figure is -0.266%. As for `CCc1nc(C)cn1S(=O)(=O)c1cc(OC)c(C)cc1C`, the figure is 2.46%.

As to `CN(C(=O)c1cc2ccccc2cc1O)C1CCCCC1`, the “hERG current change (%, negative = inhibition) at 10uM” value is 0.457%.

Turning to `COc1ccc(C(=O)Nc2cccc(S(=O)(=O)NC3=NCCCCC3)c2)cc1`, the “hERG current change (%, negative = inhibition) at 10uM” value was -10.9%.

For `O=C(COC(=O)C1CCN(c2ccc(C(F)(F)F)cn2)CC1)NCCc1ccccc1`, the “hERG current change (%, negative = inhibition) at 10uM” value is on record as -12.8%. As for `COCCNC(=O)C1CC(=O)N(c2ccc(OC)cc2)C1c1ccc(OC)cc1` (stereo not shown), the “hERG current change (%, negative = inhibition) at 10uM” value was 9.03%.

Consider `FC(F)C(F)(F)C1=CC(c2cccs2)=NCCN1`, for which the “hERG current change (%, negative = inhibition) at 10uM” value is reported as -25.5%. Take `NC(=O)c1ccsc1NC(=O)COC(=O)c1nc(Cl)ccc1Cl`: the “hERG current change (%, negative = inhibition) at 10uM” value is recorded as -0.505%.

`Cc1cc(Oc2ccc([N+](=O)[O-])cc2)nc(N2CCOCC2)n1`: the “hERG current change (%, negative = inhibition) at 10uM” value is recorded as 13.5%.

As to `CCOC(=O)C1CCN(Cc2ccc(O)c3ncccc23)CC1`, the “hERG current change (%, negative = inhibition) at 10uM” value is 3.26%. With `CC(=O)C1=C(C)NC(C)=C(C(C)=O)C1c1cn(-c2ccccc2)nc1-c1cccs1`, the “hERG current change (%, negative = inhibition) at 10uM” value is reported as -5.87%.

Take `CCOC(=O)COc1ccc2c(c1)C(=O)CC1(CCN(C(C)=O)CC1)O2`: the “hERG current change (%, negative = inhibition) at 10uM” value is recorded as -19.7%. Take `O=C(Nc1cccnc1)c1ccc2c(c1)C(=O)N(CC1CCCO1)C2=O` (stereo not shown): the “hERG current change (%, negative = inhibition) at 10uM” value stood at 5.42%. In the case of `Cc1ccc(S(=O)(=O)NC(C)C(=O)Nc2ccccc2C(=O)N2CCCC2)cc1` (stereo not shown), the “hERG current change (%, negative = inhibition) at 10uM” value stood at 5.61%.

Take `COc1ccccc1-n1cc(C(=O)c2cc(Cl)ccc2O)cc(C#N)c1=O`: the “hERG current change (%, negative = inhibition) at 10uM” value is recorded as 11.6%. To `CCOc1ccc2c(c1)C(N(CCN1CCOCC1)C(=O)Nc1ccc(OC)cc1OC)CC(C)(C)O2` (stereo not shown) belongs -51.9%; to `CCOC(=O)C(=O)Nc1ccccc1C(=O)OCC`, 2.86%; to `N#C/C(=C\c1cc2c(cc1Br)OCO2)c1ccc(C(=O)O)cc1`, 13.2%.

As to `Cc1nn2c(-c3ccccc3)ccnc2c1-c1ccccc1`, the “hERG current change (%, negative = inhibition) at 10uM” value worked out at 10.7%. For the compound `O=C(CCN1C(=O)C2C3C=CC(C3)C2C1=O)Nc1nccs1` (stereo not shown), the “hERG current change (%, negative = inhibition) at 10uM” value stood at 7.84%. To `Cl.ON=C1c2cc(OCCN3CCCCC3)ccc2-c2ccc(OCCN3CCCCC3)cc21` belongs -58.1%.

As for `Cc1cccc(C)c1OCC(=O)Nc1cccc(S(=O)(=O)N2CCCC2)c1`, the “hERG current change (%, negative = inhibition) at 10uM” value amounted to 3.77%. Turning to `CCN1CCN(CC(=O)Nc2ccc(C)cc2C)C(=O)C1=O`, the “hERG current change (%, negative = inhibition) at 10uM” value turned out to be 11.8%.

`O=C(CN1C(=O)c2ccc([N+](=O)[O-])cc2C1=O)NCC1CCCO1` (stereo not shown): the “hERG current change (%, negative = inhibition) at 10uM” value was 7.33%.

On to `COc1ccccc1C1CCN(C(=O)c2cccc([N+](=O)[O-])c2)CC1`, for which the “hERG current change (%, negative = inhibition) at 10uM” value is reported as -21.8%.

With `Cc1ccccc1N1CCN(C2CCCN(C(=O)CCC3(C)CC3)C2)CC1` (stereo not shown), the “hERG current change (%, negative = inhibition) at 10uM” value is given as -48.6%. As for `CCOC(=O)C(NS(=O)(=O)c1ccccc1)(C(F)(F)F)P(=O)(OCC(C)C)OCC(C)C` (stereo not shown), the “hERG current change (%, negative = inhibition) at 10uM” value amounted to 6.91%. To `O=C(NCc1ccc2c(c1)OCO2)c1ccc(CN2CCOCC2)cc1` belongs 15.3%.

With `CCS(=O)(=O)c1nc(NC(C)=O)n[nH]1`, the “hERG current change (%, negative = inhibition) at 10uM” value is listed as 10%. `N#Cc1cc2c(N)c(C(=O)Nc3ccccc3)sc2nc1N`: the “hERG current change (%, negative = inhibition) at 10uM” value is given as 8.83%. Regarding `CC(C)CCN1CCN(Cc2ccon2)CC1CCO` (stereo not shown), the “hERG current change (%, negative = inhibition) at 10uM” value was 4.53%. As for `Cc1nnc(SCCn2c(Br)nc3c2c(=O)n(C)c(=O)n3C)s1`, the figure is -5.67%.
